Reference: the supplement of paper PMC4967469
The IC50 comes from the fitted curve, where viability falls to half of the control; where the fit passes the top or lowest dose, that dose stands as a limit. AUC, from the same fit, is the share of area under the viability curve across the 256-fold dose range; values near 1 show little effect. For part of these data: A top dose marked as inferred was derived from the fitted curves, not read from the paper. For part of these data: An entry number marks a drug with two screens in the source, which often give different values.

Legend:
Experiment in all cases: Viability of human cancer cell lines after 72 h of drug (GDSC screen)
JQ1 = compound: Cc1sc2c(c1C)C(c1ccc(Cl)cc1)=N[C@@H](CC(=O)OC(C)(C)C)c1nnc(C)n1-2 [JQ1]
Description: (§1)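 Human cancer cell lines in 384-well plates, medium with 10% serum, drug for 72 h over a 256-fold dose range (nine 2-fold or five 4-fold steps up to the top dose). Adherent lines were fixed and stained with the nucleic acid dye Syto60, suspension lines read with resazurin; signal relative to control wells, capped at 0 and 100%. One two-parameter sigmoid per drug and line, fitted in a mixed model over all curves with the slope shared within a line.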

Belinostat = compound: O=C(/C=C/c1cccc(S(=O)(=O)Nc2ccccc2)c1)NO [Belinostat]; details: top dose 20 µM; top dose inferred
Description: as §1

FTI-277 = compound: COC(=O)[C@H](CCSC)NC(=O)c1ccc(NC[C@@H](N)CS)cc1-c1ccccc1 [FTI-277]; details: top dose 1.024 µM; top dose inferred
Description: as §1

SB-715992 = compound: Cc1ccc(C(=O)N(CCCN)[C@@H](c2nc3cc(Cl)ccc3c(=O)n2Cc2ccccc2)C(C)C)cc1 [SB-715992]; details: top dose 0.128 µM; top dose inferred
Description: as §1

JNJ-26854165 = compound: c1ccc2c(CCNc3ccc(Nc4ccncc4)cc3)c[nH]c2c1 [JNJ-26854165]; details: top dose 10 µM
Description: as §1

YM155 = compound: COCC[n+]1c2c(n(Cc3cnccn3)c1C)C(=O)c1ccccc1C2=O [YM155]; details: top dose 5.12 µM
Description: as §1

OSI-906 = compound: C[C@]1(O)C[C@@H](c2nc(-c3ccc4ccc(-c5ccccc5)nc4c3)c3c(N)nccn32)C1 [OSI-906]; details: top dose 2.56 µM; top dose inferred
Description: as §1

NSC-207895 = compound: CN1CCN(c2ccc([N+](=O)[O-])c3no[n+]([O-])c23)CC1 [NSC-207895]; details: top dose 20 µM; top dose inferred
Description: as §1

[1] = top dose 1 µM, screen: GDSC drug entry 1218, top dose inferred
[2] = top dose 2.56 µM, screen: GDSC drug entry 163

Row | Cell Line | AUC (JQ1; [1]) | IC50 (JQ1; [1]) [nM] | AUC (JQ1; [2]) | IC50 (JQ1; [2]) [nM] | AUC (Belinostat) | IC50 (Belinostat) [nM] | AUC (FTI-277) | IC50 (FTI-277) [nM] | AUC (SB-715992) | IC50 (SB-715992) [nM] | AUC (JNJ-26854165) | IC50 (JNJ-26854165) [nM] | AUC (YM155) | IC50 (YM155) [nM] | AUC (OSI-906) | IC50 (OSI-906) [nM] | AUC (NSC-207895) | IC50 (NSC-207895) [nM]
1 | A204 (rhabdomyosarcoma, adherent) | 0.952 | > 1000 | 0.545 | 221 | 0.432 | 771 | 0.96 | > 1020 | 0.943 | > 128 | 0.608 | 1350 | 0.05 | < 20 | 0.97 | > 2560 | 0.707 | 5780
2 | AN3-CA (endometrium, adherent) | 0.963 | > 1000 | 0.959 | > 2560 | 0.698 | 4770 | 0.981 | > 1020 | 0.975 | > 128 | 0.926 | > 10000 | 0.072 | < 20 | 0.945 | > 2560 | 0.874 | > 20000
3 | BEN (non-small cell lung carcinoma, adherent) | 0.984 | > 1000 | 0.494 | 153 | 0.582 | 2170 | 0.97 | > 1020 | 0.896 | > 128 | 0.893 | > 10000 | 0.559 | 475 | 0.976 | > 2560 | 0.978 | > 20000
4 | BFTC-909 (kidney, adherent) | 0.92 | > 1000 | 0.74 | 759 | 0.64 | 3010 | 0.983 | > 1020 | 0.973 | > 128 | 0.889 | > 10000 | 0.159 | 29.7 | 0.969 | > 2560 | 0.986 | > 20000
5 | CAMA-1 (breast, adherent) | 0.982 | > 1000 | 0.447 | 111 | 0.483 | 1110 | 0.956 | > 1020 | 0.861 | > 128 | 0.886 | > 10000 | 0.204 | 33 | 0.973 | > 2560 | 0.924 | > 20000
6 | COLO-792 (melanoma, adherent) | 0.987 | > 1000 | 0.887 | > 2560 | 0.738 | 5910 | 0.982 | > 1020 | 0.652 | 21 | 0.849 | 7300 | 0.542 | 415 | 0.877 | 2520 | 0.987 | > 20000
7 | COR-L105 (lung adenocarcinoma, adherent) | 0.978 | > 1000 | 0.412 | 87 | 0.425 | 746 | 0.98 | > 1020 | 0.902 | > 128 | 0.893 | > 10000 | 0.117 | < 20 | 0.95 | > 2560 | 0.947 | > 20000
8 | EPLC-272H (lung squamous cell carcinoma, adherent) | 0.972 | > 1000 | 0.974 | > 2560 | 0.284 | 280 | 0.982 | > 1020 | 0.62 | 17.9 | 0.859 | > 10000 | 0.049 | < 20 | 0.94 | > 2560 | 0.755 | 7590
9 | GCT (soft tissue, adherent) | 0.988 | > 1000 | 0.789 | 1040 | 0.946 | > 20000 | 0.98 | > 1020 | 0.989 | > 128 | 0.851 | 6820 | 0.64 | 758 | 0.976 | > 2560 | 0.989 | > 20000
10 | GP5d (large intestine, adherent) | 0.99 | > 1000 | 0.61 | 311 | 0.423 | 788 | 0.987 | > 1020 | 0.688 | 25.3 | 0.983 | > 10000 | 0.447 | 233 | 0.866 | 1890 | 0.976 | > 20000
11 | H2803 (mesothelioma, adherent) | 0.983 | > 1000 | 0.748 | 942 | 0.459 | 951 | 0.96 | > 1020 | 0.974 | > 128 | 0.869 | > 10000 | 0.248 | 52.5 | 0.889 | > 2560 | 0.985 | > 20000
12 | H2804 (mesothelioma, adherent) | 0.984 | > 1000 | 0.77 | 1070 | 0.517 | 1390 | 0.985 | > 1020 | 0.985 | > 128 | 0.913 | > 10000 | 0.155 | 24 | 0.983 | > 2560 | 0.959 | > 20000
13 | H2818 (mesothelioma, adherent) | 0.988 | > 1000 | 0.489 | 149 | 0.789 | 9130 | 0.966 | > 1020 | 0.989 | > 128 | 0.965 | > 10000 | 0.775 | 2080 | 0.983 | > 2560 | 0.989 | > 20000
14 | HO-1-N-1 (head and neck, adherent) | 0.861 | 734 | 0.843 | 1590 | 0.448 | 913 | 0.953 | > 1020 | 0.548 | 10.7 | 0.88 | 8910 | 0.023 | < 20 | 0.987 | > 2560 | 0.904 | > 20000
15 | HOP-92 (large cell lung carcinoma, adherent) | 0.966 | > 1000 | 0.901 | > 2560 | 0.695 | 4860 | 0.965 | > 1020 | 0.977 | > 128 | 0.905 | > 10000 | 0.116 | < 20 | 0.936 | > 2560 | 0.953 | > 20000
16 | HPAC (pancreas, adherent) | 0.969 | > 1000 | 0.82 | 2340 | 0.539 | 1660 | 0.979 | > 1020 | 0.873 | > 128 | 0.962 | > 10000 | 0.076 | < 20 | 0.779 | 1510 | 0.96 | > 20000
17 | HPAF-II (pancreas, adherent) | 0.965 | > 1000 | 0.667 | 541 | 0.727 | 6850 | 0.958 | > 1020 | 0.881 | > 128 | 0.825 | 8680 | 0.079 | < 20 | 0.854 | > 2560 | 0.899 | > 20000
18 | HSC-3 (head and neck, adherent) | 0.959 | > 1000 | 0.528 | 188 | 0.625 | 2610 | 0.97 | > 1020 | 0.961 | > 128 | 0.806 | 4230 | 0.059 | < 20 | 0.972 | > 2560 | 0.99 | > 20000
19 | HTC-C3 (thyroid, adherent) | 0.976 | > 1000 | 0.623 | 364 | 0.238 | 196 | 0.951 | > 1020 | 0.881 | > 128 | 0.932 | > 10000 | 0.102 | < 20 | 0.964 | > 2560 | 0.926 | > 20000
20 | Hs940-T (melanoma, adherent) | 0.981 | > 1000 | 0.649 | 453 | 0.596 | 2430 | 0.976 | > 1020 | 0.97 | > 128 | 0.736 | 3460 | 0.421 | 186 | 0.825 | 2000 | 0.94 | > 20000
21 | IM-95 (stomach, adherent) | 0.984 | > 1000 | 0.557 | 231 | 0.486 | 1140 | 0.981 | > 1020 | 0.839 | 96.3 | 0.877 | > 10000 | 0.255 | 60 | 0.906 | > 2560 | 0.982 | > 20000
22 | J82 (bladder, adherent) | 0.948 | > 1000 | 0.671 | 476 | 0.707 | 4770 | 0.948 | > 1020 | 0.977 | > 128 | 0.916 | > 10000 | 0.617 | 672 | 0.951 | > 2560 | 0.976 | > 20000
23 | KP-4 (pancreas, adherent) | 0.986 | > 1000 | 0.852 | 1850 | 0.445 | 893 | 0.98 | > 1020 | 0.442 | 5.59 | 0.878 | 9410 | 0.024 | < 20 | 0.986 | > 2560 | 0.988 | > 20000
24 | KYSE-70 (oesophagus, adherent) | 0.98 | > 1000 | 0.825 | 1730 | 0.558 | 1820 | 0.959 | > 1020 | 0.919 | > 128 | 0.955 | > 10000 | 0.544 | 427 | 0.975 | > 2560 | 0.986 | > 20000
25 | KYSE-180 (oesophagus, adherent) | 0.982 | > 1000 | 0.697 | 556 | 0.33 | 429 | 0.986 | > 1020 | 0.662 | 22.1 | 0.84 | 6420 | 0.03 | < 20 | 0.895 | > 2560 | 0.867 | 16700
26 | KYSE-270 (oesophagus, adherent) | 0.973 | > 1000 | 0.443 | 115 | 0.529 | 1480 | 0.975 | > 1020 | 0.903 | 126 | 0.784 | 3590 | 0.075 | < 20 | 0.952 | > 2560 | 0.894 | 17800
